Consider 36 molecules from US20170307628A1 (EIDGENOESSISCHE TECHNISCHE HOCHSCHULE ZURICH, published 2017).

One assay addresses T1, bovine serum albumin (bovine, UniProt P02769).
T1 construct: also called BSA
The assay is described as follows: ELISA on biotinylated BSA on streptavidin wells, anti-myc 9E10.

For another assay, the target named is T2, EGFR on cells (UniProt P00533).
T2 construct: whole, on cells; also called epidermal growth factor receptor
The assay is described as follows: FACS MDA-MB-468 cells, lysate.

Another assay addresses T3, human serum albumin (human, UniProt P02768).
T3 construct: also called HSA
Kind of assay: lysate ELISA. A general note: ELISA stands for enzyme-linked immunosorbent assay.

The target in a further assay is T4, mouse serum albumin (mouse, UniProt P07724 25-608).
T4 construct: also called MSA
The assay is described as follows: lysate ELISA and/or Biacore.

bovine serum albumin, sequence (P02769 25-607 limits assumed): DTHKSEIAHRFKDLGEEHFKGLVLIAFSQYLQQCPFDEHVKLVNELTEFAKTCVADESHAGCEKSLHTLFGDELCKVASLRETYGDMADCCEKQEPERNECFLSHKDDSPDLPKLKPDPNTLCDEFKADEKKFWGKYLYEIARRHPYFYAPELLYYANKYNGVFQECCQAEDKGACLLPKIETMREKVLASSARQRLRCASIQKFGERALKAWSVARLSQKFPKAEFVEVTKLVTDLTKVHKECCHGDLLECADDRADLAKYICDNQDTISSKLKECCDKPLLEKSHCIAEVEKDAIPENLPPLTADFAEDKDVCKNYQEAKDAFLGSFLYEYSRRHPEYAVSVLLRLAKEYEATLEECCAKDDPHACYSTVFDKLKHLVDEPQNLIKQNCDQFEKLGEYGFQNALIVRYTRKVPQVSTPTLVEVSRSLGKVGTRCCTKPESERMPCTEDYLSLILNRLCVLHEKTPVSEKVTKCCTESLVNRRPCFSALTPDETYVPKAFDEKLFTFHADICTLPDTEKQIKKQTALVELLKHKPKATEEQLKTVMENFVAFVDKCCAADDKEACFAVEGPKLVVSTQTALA
mouse serum albumin, sequence (P07724 25-608 limits assumed): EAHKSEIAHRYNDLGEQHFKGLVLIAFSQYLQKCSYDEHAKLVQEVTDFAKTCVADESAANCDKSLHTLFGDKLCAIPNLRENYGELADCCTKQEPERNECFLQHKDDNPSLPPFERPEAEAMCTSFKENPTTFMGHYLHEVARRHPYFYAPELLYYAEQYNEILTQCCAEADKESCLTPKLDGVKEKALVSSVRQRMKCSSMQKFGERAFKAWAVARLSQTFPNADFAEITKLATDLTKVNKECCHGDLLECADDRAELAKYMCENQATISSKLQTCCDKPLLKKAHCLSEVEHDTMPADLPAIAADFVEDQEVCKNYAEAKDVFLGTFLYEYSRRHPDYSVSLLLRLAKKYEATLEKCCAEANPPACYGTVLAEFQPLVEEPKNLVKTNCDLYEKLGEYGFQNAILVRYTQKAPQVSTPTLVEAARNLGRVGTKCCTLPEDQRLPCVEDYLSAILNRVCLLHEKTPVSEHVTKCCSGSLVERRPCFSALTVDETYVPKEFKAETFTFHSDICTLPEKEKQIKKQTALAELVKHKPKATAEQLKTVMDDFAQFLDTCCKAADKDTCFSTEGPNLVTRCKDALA

B1: H2 (designed binder)
chain: GVTLFVALYDYQADRWTDLSFHKGEKFQILRFDIGDWWEARSLTTGETGYIPSNYVAPVDSIQ
Turning to B1, in the assay with bovine serum albumin, the binding result is “no binding (tested: 200 nM)”.

B2: B5 (designed binder)
chain: GVTLFVALYDYNATRWTDLSFHKGEKFQILDGDSGDWWEARSLTTGETGYIPSNYVAPVDSIQ
As for B2, in the assay with bovine serum albumin, the binding result was “no binding (tested: 200 nM)”.

B3: D7 (designed binder)
chain: GVTLFVALYDYQADRWTDLSFHKGEKFQILSFHVGDWWEARSLTTGETGYIPSNYVAPVDSIQ
For the molecule B3, the binding result in the assay with bovine serum albumin is reported as “no binding (tested: 200 nM)”.

B4: F12 (designed binder)
chain: GVTLFVALYDYRAERSTDLSFHKGEKFQILDMTVPNGDWWEARSLTTGETGYIPSNYVAPVDSIQ
Regarding B4, the binding result with bovine serum albumin is on record as “no binding (tested: 200 nM)”.

B5: G2.3 (designed binder)
chain: GVTLFVALYDYNATRWTDLSFHKGEKFQILDWTTANGDWWEARSLTTGETGYIPSNYVAPVDSIQ
As for B5, the binding result with bovine serum albumin was “no binding (tested: 200 nM)”.

B6: A4 (designed binder)
chain: GVTLFVALYDYQADRWTDLSFHKGEKFQILDASPPGDWWEARSLTTGETGYIPSNYVAPVDSIQ
As to B6, the binding result with bovine serum albumin is on record as “no binding (tested: 200 nM)”.

B7: E3 (designed binder)
chain: GVTLFVALYDYQADRWTDLSFHKGEKFQILNASGPGDWWEARSLTTGETGYIPSNYVAPVDSIQ
As to B7, in the assay with bovine serum albumin, the binding result was “no binding (tested: 200 nM)”.

B8: SEQ ID NO 417 (designed binder)
chain: GVTLFVALYDYEARGLNRMFDLSFHKGEKFQILTRETGDWWEARSLTTGETGYIPSNYVAPVDSIQ
notes: myc-His tagged
With B8, the binding result in the assay with EGFR on cells was “binds”.

B9: SEQ ID NO 412 (designed binder)
chain: GVTLFVALYDYEARGLNRMFDLSFHKGEKFQILQFETGDWWEARSLTTGETGYIPSNYVAPVDSIQ
notes: myc-His tagged
With B9, the binding result with EGFR on cells is reported as “binds”.

B10: SEQ ID NO 420 (designed binder)
chain: GVTLFVALYDYEARGLHRMFDLSFHKGEKFQILDRTNGDWWEARSLTTGETGYIPSNYVAPVDSIQ
notes: myc-His tagged
B10: the binding result with EGFR on cells was “binds”.

B11: SEQ ID NO 413 (designed binder)
chain: GVTLFVALYDYEARGLNRMFDLSFHKGEKFQILAFETGDWWEARSLTTGETGYIPSNYVAPVDSIQ
notes: myc-His tagged
For B11, the binding result with EGFR on cells was “binds”.

B12: ER9L3D7 (designed binder)
chain: GVTLFVALYDYEARGLNRMFDLSFHKGEKFQILSTENGDWWEARSLTTGETGYIPSNYVAPVDSIQ
notes: myc-His tagged
In the case of B12, the binding result with EGFR on cells is listed as “binds”.

B13: ER7L2D6 (designed binder)
chain: GVTLFVALYDYEARGLNRMFDLSFHKGEKFQILSFETGDWWEARSLTTGETGYIPSNYVAPVDSIQ
notes: myc-His tagged
B13: the binding result with EGFR on cells was “binds”.

B14: SEQ ID NO 411 (designed binder)
chain: GVTLFVAVYDYEARGLNRMFDLSFHKGEKFQILNRESEDWWEARSLTTGETGYIPSNYVAPVDSIQ
notes: myc-His tagged
For B14, the binding result with EGFR on cells was “binds”.

B15: SEQ ID NO 415 (designed binder)
chain: GVTLFVALYDYEARGLHRMFDLSFHKGEKFQILNRETGDWWEARSLTTGETGYIPSNYVAPVDSIQ
notes: myc-His tagged
Take B15: the binding result with EGFR on cells was “binds”.

B16: SEQ ID NO 419 (designed binder)
chain: GVTLFVALYDYEARGLNRMFDLSFHKGEKFQILLPQEGDWWEARSLTTGETGYIPSNYVAPVDSIQ
notes: myc-His tagged
On to B16, for which the binding result in the assay with EGFR on cells is reported as “binds”.

B17: SEQ ID NO 418 (designed binder)
chain: GVTLFVALYDYEARGLNRMFDLSFHKGEKFQILDTSESGDWWEARSLTTGETGYIPSNYVAPVDSIQ
notes: myc-His tagged
For B17, in the assay with EGFR on cells, the binding result is on record as “binds”.

B18: SEQ ID NO 350 (designed binder)
chain: GVTLFVALYDYRSSYEWDLSFHKGEKFQILQNLWTGDWWEARSLTTGETGYIPSNYVAPVDSIQ
notes: myc-His tagged
For B18, the binding result with human serum albumin and in the assay with mouse serum albumin was “binds” each time.

B19: SEQ ID NO 360 (designed binder)
chain: GVTLFVALYDYESRHGYDLSFHKGEKFQILQNLWTGDWWEARSLTTGETGYIPSNYVAPVDSIQ
notes: myc-His tagged
Consider B19, for which the binding result with human serum albumin and with mouse serum albumin was “binds” each time.

B20: SEQ ID NO 367 (designed binder)
chain: GVTLFVALYDYMSQMGYDLSFHKGEKFQILQNLWTGDWWEARSLTTGETGYIPSNYVAPVDSIQ
notes: myc-His tagged
Turning to B20, the binding result in the assay with human serum albumin and in the assay with mouse serum albumin was “binds” in each case.

B21: SEQ ID NO 366 (designed binder)
chain: GVTLFVALYDYLTKQLPDRSFHKGEKFQILQNLWTGDWWEARSLTTGETGYIPSNYVAPVDSIQ
notes: myc-His tagged
With B21, the binding result with human serum albumin and with mouse serum albumin was “binds” throughout.

B22: SEQ ID NO 358 (designed binder)
chain: GVTLFVALYDYTLRQWKDLSFHKGEKFQILQNLWTGDWWEARSLTTGETGYIPSNYVAPVDSIQ
notes: myc-His tagged
As to B22, the binding result in the assay with human serum albumin and in the assay with mouse serum albumin was “binds” in each case.

B23: SEQ ID NO 359 (designed binder)
chain: GVTLFVALYDYERQHGFDLSFHKGEKFQILQNLWTGDWWEARSLTTGETGYIPSNYVAPVDSIQ
notes: myc-His tagged
B23: the binding result with human serum albumin and in the assay with mouse serum albumin was “binds” each time.

B24: SEQ ID NO 365 (designed binder)
chain: GVTLFVALYDYTAVHGYDLSFHKGEKFQILQNLWTGDWWEARSLTTGETGYIPSNYVAPVDSIQ
notes: myc-His tagged
As for B24, the binding result with human serum albumin and with mouse serum albumin was “binds” throughout.

B25: SEQ ID NO 368 (designed binder)
chain: GVTLFVALYDYQASHGYDLSFHKGEKFQILQNLWTGDWWEARSLTTGETGYIPSNYVAPVDSIQ
notes: myc-His tagged
Take B25: the binding result with human serum albumin and with mouse serum albumin was “binds” in each case.

B26: SEQ ID NO 352 (designed binder)
chain: GVTLFVALYDYHAHLGYDLSFHKGEKFQILQNLWTGDWWEARSLTTGETGYIPSNYVAPVDSIQ
notes: myc-His tagged
B26: the binding result with human serum albumin and with mouse serum albumin was “binds” in each case.

B27: SEQ ID NO 353 (designed binder)
chain: GVTLFVALYDYGNFRWRDLSFHKGEKFQILQNLWTGDWWEARSLTTGETGYIPSNYVAPVDSIQ
notes: myc-His tagged
B27: the binding result with human serum albumin and with mouse serum albumin was “binds” throughout.

B28: SEQ ID NO 357 (designed binder)
chain: GVTLFVALYDYLMKTLADLSFHKGEKFQILQDLWTGDWWEARSLTTGETGYIPSNYVAPVDSIQ
notes: myc-His tagged
With B28, the binding result with human serum albumin and with mouse serum albumin was “binds” throughout.

B29: SEQ ID NO 362 (designed binder)
chain: GVTLFVALYDYLLQWRQDLSFHKGEKFQILQDLWTGDWWEARSLTTGETGYIPSNYVAPVDSIQ
notes: myc-His tagged
Regarding B29, the binding result with human serum albumin and in the assay with mouse serum albumin was “binds” throughout.

B30: SEQ ID NO 356 (designed binder)
chain: GVTLFVALYDYQSKHGYDLSFHKGEKFQILQDLWTGDWWEARSLTTGETGYIPSNYVAPVDSIQ
notes: myc-His tagged
Consider B30, for which the binding result with human serum albumin and in the assay with mouse serum albumin was “binds” each time.

B31: SEQ ID NO 364 (designed binder)
chain: GVTLFVALYDYEAHLGYDLSFHKGEKFQILQNLWTGDWWEARSLTTGETGYIPSNYVAPVDSIQ
notes: myc-His tagged
Regarding B31, the binding result with human serum albumin and with mouse serum albumin was “binds” in each case.

B32: SEQ ID NO 351 (designed binder)
chain: GVTLFVALYDYQSRHGFDLSFHKGEKFQILQNLWTGNWWEARSLTTGETGYIPSNYVAPVDSIQ
notes: myc-His tagged
In the case of B32, the binding result with human serum albumin and with mouse serum albumin was “binds” each time.

B33: SEQ ID NO 355 (designed binder)
chain: GVTLFVALYDYTSMRGYDLSFHKGEKFQILQDLWTGDWWEARSLTTGETGYIPSNYVAPVDSIQ
notes: myc-His tagged
B33: the binding result with human serum albumin and in the assay with mouse serum albumin was “binds” in each case.

B34: SEQ ID NO 361 (designed binder)
chain: GVTLFVALYDYQSKQGFDLSFHKGEKFQILQNLWTGDWWEARSLTTGETGYIPSNYVAPVDSIQ
notes: myc-His tagged
Turning to B34, the binding result with human serum albumin and with mouse serum albumin was “binds” in each case.

B35: SEQ ID NO 363 (designed binder)
chain: GVTLFVALYDYTSSHGFDLSFHKGEKFQILQDLWTGDWWEVRSLTTGETGYIPSNYVAPVDSIQ
notes: myc-His tagged
B35: the binding result with human serum albumin and in the assay with mouse serum albumin was “binds” each time.

B36: SEQ ID NO 354 (designed binder)
chain: GVTLFVALYDYQSRHGFDLSFHKGEKFQILQNLWTGWGWVARSLTTGLSGYIPSNYVAPVDSIQ
notes: myc-His tagged
B36: the binding result in the assay with human serum albumin and with mouse serum albumin was “binds” each time.
